# At least one structure is not confirmed: it was looked up by name or label, or the drawing left a doubt. Starred links: 1 amine or outer side, 2 acyl side, 3 side chain; linkers in the order of their positions; H or OH if unused. Positions of bridges follow the written chain, without caps; N, C: chain ends. Non-standard residues stand in square brackets, D forms with d. Residues, ends and D or L forms follow the SMILES beside them. Groups on a side chain read outwards from the residue. Chains are numbered I, II in the order given. *: point of attachment. X1 = O=C(O)CN1CCN(CC(=O)O)CCN(CC(=O)NC(CC(=O)NCCOCCOCC(=O)[*:1])CC(=O)NCCOCCOCC(=O)[*:2])CCN(CC(=O)O)CC1; DOTA = O=C(O)CN1CCN(CC(=O)O)CCN(CC(=O)*)CCN(CC(=O)O)CC1; X6 = O=C(CCCc1ccc(I)cc1)N[C@@H](CCCCN*)C(=O)O; NOTA = O=C(O)CN1CCN(CC(=O)O)CCN(CC(=O)*)CC1; Phe(4-CH2NH2) = NCc1ccc(C[C@H](N)C(=O)O)cc1; Piperazinyl(4-CH2COOH) = O=C(O)CN1CCN(*)CC1; NMe3Pal = CN[C@@H](Cc1cccnc1)C(=O)O; NMeF = CN[C@@H](Cc1ccccc1)C(=O)O; Aoc(2) = CCCCCC[C@H](N)C(=O)O; AEEA = NCCOCCOCC(=O)O; CO = O=C([*:1])[*:2]
# Legend:
# mouse FAP [1] = target: T1, mouse FAP (Mus musculus, UniProt P97321); assay: Surface plasmon resonance (SPR) for peptide affinity, mouse FAP; type: binding
# T1 construct: biotinylated His, Avi tag, mouse FAP (26-761, FAP-M82Q5); His; Avi tag (biotinylated); purchased AcroBiosystems FAP-M82Q5
# T1 sequence (P97321 26-761): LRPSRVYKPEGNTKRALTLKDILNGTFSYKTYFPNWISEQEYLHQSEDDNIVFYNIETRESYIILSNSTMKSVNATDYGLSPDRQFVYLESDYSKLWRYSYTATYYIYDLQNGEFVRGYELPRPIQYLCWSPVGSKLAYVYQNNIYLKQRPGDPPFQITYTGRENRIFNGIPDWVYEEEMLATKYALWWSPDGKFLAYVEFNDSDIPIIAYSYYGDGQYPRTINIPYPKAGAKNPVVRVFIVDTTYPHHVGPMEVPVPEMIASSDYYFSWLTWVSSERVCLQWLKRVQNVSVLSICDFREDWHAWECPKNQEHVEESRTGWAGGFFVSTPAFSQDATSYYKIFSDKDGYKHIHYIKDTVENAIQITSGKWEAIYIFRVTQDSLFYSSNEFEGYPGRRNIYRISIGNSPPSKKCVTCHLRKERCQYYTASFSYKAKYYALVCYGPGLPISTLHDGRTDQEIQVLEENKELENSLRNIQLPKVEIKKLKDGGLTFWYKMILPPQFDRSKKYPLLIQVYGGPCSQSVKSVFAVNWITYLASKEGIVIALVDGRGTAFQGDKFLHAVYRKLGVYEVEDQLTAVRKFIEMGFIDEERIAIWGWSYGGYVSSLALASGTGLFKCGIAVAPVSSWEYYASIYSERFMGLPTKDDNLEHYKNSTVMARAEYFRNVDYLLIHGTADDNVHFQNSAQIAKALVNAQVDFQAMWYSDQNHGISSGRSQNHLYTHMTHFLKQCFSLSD
# Experimental: Peptide affinities (KD) were determined by SPR using a Biacore™ 8K device (Cytiva) towards the following proteins: biotinylated His, Avi tag, human FAP (26-760, FAP-H82Q6), biotinylated His, Avi tag, mouse FAP (26-761, FAP-M82Q5), His tag, human DPP4 (34-766, DP4-H82E3), all purchased from AcroBiosystems and His tag, mouse DPP4 (29-760, 954-SE) from R&D Systems. The FAP proteins and their homologous were diluted to a concentration of 2 μg/mL into acetate buffer pH 5.5, then immobilized onto a CM5 sensorchip (Cytiva, BR-1005-30) to reach a response around 2000 R U. The running buffer HBS-EP+pH 7.6 (20× from Teknova CAT. No: H8022) contained 10 mM HEPES pH 7.6, 150 mM NaCl, 3 mM EDTA, 0.05% Tween20 and 2% DMSO. Experiments were carried out at 25° C. using a flow rate of 30 μL/min. Compounds were tested in single cycle kinetic mode at 8 different concentrations. Curve fitting was performed using the Biacore™ 8K evaluation software. The sensorgrams were fitted by applying a 1:1 binding model to calculate kinetic rate constants and equilibrium dissociation constants (KD).
# For this assay, the setup had the same conditions (flow rate, running buffer, peptide dilution) as described above for the CM5 method. The oligo CAP reagent obtained in the CAPture Kit (Ref. 28920234) was 1/5 diluted into running buffer and used with a contact time of 300 s at a flow rate of 2 μL/min. The human and mouse FAP constructs described above were used (from AcroBiosystems or produced in house). The FAP proteins were diluted to a concentration of 2 μg/mL into acetate pH 5.5, 0.05% Tween20 and used with a contact time of 600 s at a flow rate of 10 μL/min. The peptides were tested with an association time of 280 s followed by a dissociation time of 3000 s at a flow rate of 30 μL/min. The regeneration was done using the regeneration solution (8 M guanidine-HCl, 1 M NaOH) as obtained with a contact time of 270 s at a flow rate of 10 μL/min. […] The compounds marked with an asterisk were tested against human and mouse DDP4.
# human FAP = target: T2, human FAP (Homo sapiens, UniProt Q12884); assay: Enzymatic FAP competition assay (Z-Gly-Pro-AMC fluorescence), human FAP; type: biochemical; details: read-out: h. FAP, Enz., IC50
# T2 construct: the biotinylated His, Avi tag, human FAP (26-760, FAP-H82Q6); His; Avi tag (biotinylated); purchased AcroBiosystems FAP-H82Q6
# T2 sequence (Q12884 26-760): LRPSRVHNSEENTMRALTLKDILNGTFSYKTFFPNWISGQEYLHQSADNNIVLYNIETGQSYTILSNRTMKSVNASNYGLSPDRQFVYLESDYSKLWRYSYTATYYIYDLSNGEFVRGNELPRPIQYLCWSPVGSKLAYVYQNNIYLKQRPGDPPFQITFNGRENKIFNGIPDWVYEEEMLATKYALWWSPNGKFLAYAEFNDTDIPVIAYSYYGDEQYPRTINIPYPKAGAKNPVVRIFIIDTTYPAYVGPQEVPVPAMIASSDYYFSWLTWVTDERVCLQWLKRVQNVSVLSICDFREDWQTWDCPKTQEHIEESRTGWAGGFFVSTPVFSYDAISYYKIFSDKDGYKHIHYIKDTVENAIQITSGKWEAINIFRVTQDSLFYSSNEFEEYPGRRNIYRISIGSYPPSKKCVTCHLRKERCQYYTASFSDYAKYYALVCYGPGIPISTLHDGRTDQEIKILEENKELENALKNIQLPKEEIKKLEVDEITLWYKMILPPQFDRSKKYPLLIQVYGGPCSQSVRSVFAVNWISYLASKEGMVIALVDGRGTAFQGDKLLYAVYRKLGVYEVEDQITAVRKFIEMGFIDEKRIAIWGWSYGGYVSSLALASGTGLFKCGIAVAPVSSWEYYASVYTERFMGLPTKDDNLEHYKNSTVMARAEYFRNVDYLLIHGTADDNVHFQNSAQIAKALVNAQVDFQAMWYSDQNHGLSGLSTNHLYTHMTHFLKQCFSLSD
# Experimental: (§1) Peptide potencies (IC50) to inhibit the FAP enzymatic activity were determined using a fluorescence-based assay towards the biotinylated His, Avi tag, human FAP (26-760, FAP-H82Q6) and the biotinylated His, Avi tag, mouse FAP (26-761, FAP-M82Q5). Standard assay conditions consisted of 20 μL total volume in white 384-well plates (Greiner, Ref. 784075), in 50 mM phosphate buffer pH 7.5 containing 150 mM NaCl, 0.05% Tween20 and 1% final DMSO. Tested peptides at 14 different concentrations up to 1 μM were added to 0.01 nM human or mouse FAP. The peptides were incubated for 24 hours together with the protein before adding the substrate 50 μM Z-Gly-Pro-AMC (I-1145 from Bachem). Samples were then incubated at 22-24° C. for 4 h before reading the fluorescence at excitation wavelength of 380 nm and emission wavelength of 460 nm using the Tecan Infinite® M1000 PRO. The high control (100% activity) was not containing any peptide, and an internal potent peptide was added at 10 μM concentration for the low control (100% inhibition). IC50 values were calculated by curve fitting using an in-house developed software (Novartis Helios software application) using the method described by Fomenko et al., 2006 (regression algorithms for nonlinear dose-response curve fitting). Following normalization of activity values for the wells to % inhibition (% inhibition=[(high control-sample)/(high control-low control)]x 100). IC50 fitting was carried out from the duplicated points.
# mouse FAP [2] = target: T1, mouse FAP; assay: Enzymatic FAP competition assay (Z-Gly-Pro-AMC fluorescence), mouse FAP; type: biochemical; details: read-out: m. FAP, Enz., IC50
# Experimental: as §1
smiles,measurement,setting,value
"CCCCCC[C@@H]1NC(=O)[C@H](Cc2ccc(CNC(=O)COCCOCCNC(=O)CC(CC(=O)NCCOCCOCC(=O)NCc3ccc(C[C@@H]4NC(=O)[C@H](Cc5ccccc5)N(C)C(=O)CNC(=O)CNC(=O)[C@H]5CCCN5C(=O)[C@H](CC(=O)O)NC(=O)[C@H](CCCCNC(=O)N5CCN(CC(=O)O)CC5)NC(=O)CNC(=O)[C@H](Cc5c[nH]c6ccccc56)NC(=O)[C@H](CCCCCC)NC4=O)cc3)NC(=O)CN3CCN(CC(=O)O)CCN(CC(=O)O)CCN(CC(=O)O)CC3)cc2)NC(=O)[C@H](Cc2ccccc2)N(C)C(=O)CNC(=O)CNC(=O)[C@H]2CCCN2C(=O)[C@H](CC(=O)O)NC(=O)[C@H](CCCCNC(=O)N2CCN(CC(=O)O)CC2)NC(=O)CNC(=O)[C@H](Cc2c[nH]c3ccccc23)NC1=O [Example M2, Gly-Gly-NMePhe-F((4amPEG2NH)2-bE-NHDOTA-Lu)-Aoc-Trp-Gly-K(COpipzaa)-Asp-D-Pro] (I: cyclo(GG[NMeF][Phe(4-CH2NH2)][Aoc(2)]WGK([CO-Piperazinyl(4-CH2COOH)])D[dP]) / II: cyclo(GG[NMeF][Phe(4-CH2NH2)][Aoc(2)]WGK([CO-Piperazinyl(4-CH2COOH)])D[dP]); linker I:4-II:4 via X1)",Kd,mouse FAP [1],< 0.06 nM
same,IC50,human FAP,0.026 nM
same,IC50,mouse FAP [2],0.095 nM
CCCCCC[C@@H]1NC(=O)[C@H](Cc2ccc(CNC(=O)COCCOCCNC(=O)CN3CCN(CC(=O)O)CCN(CC(=O)O)CCN(CC(=O)O)CC3)cc2)NC(=O)[C@H](Cc2ccccc2)N(C)C(=O)[C@H](CCC(=O)NCCCC[C@H](NC(=O)CCCc2ccc(I)cc2)C(=O)O)NC(=O)CNC(=O)[C@H]2CCCN2C(=O)[C@H](CC(=O)O)NC(=O)[C@H](CCCCNC(=O)N2CCN(CC(=O)O)CC2)NC(=O)CNC(=O)[C@H](Cc2c[nH]c3ccccc23)NC1=O [Example F1] (cyclo(GE(X6)[NMeF][Phe(4-CH2NH2)]([AEEA-DOTA])[Aoc(2)]WGK([CO-Piperazinyl(4-CH2COOH)])D[dP])),Kd,mouse FAP [1],< 0.027 nM
same,IC50,human FAP,0.008 nM
same,IC50,mouse FAP [2],0.032 nM
"CCCCCC[C@@H]1NC(=O)[C@H](Cc2ccc(CNC(=O)COCCOCCNC(=O)CN3CCN(CC(=O)O)CCN(CC(=O)O)CCN(CC(=O)O)CC3)cc2)NC(=O)[C@H](Cc2cccnc2)N(C)C(=O)CNC(=O)CNC(=O)[C@H]2CCCN2C(=O)[C@H](CC(=O)O)NC(=O)[C@H](CCCCNC(=O)N2CCN(CC(=O)O)CC2)NC(=O)CNC(=O)[C@H](Cc2c[nH]c3ccccc23)NC1=O [Example C29, Gly-Gly-NMe3PyA-F(4amPEG2NHDOTA-Lu)-Aoc-Trp-Gly-K(COpipzaa)-Asp-D-Pro] (cyclo(GG[NMe3Pal][Phe(4-CH2NH2)]([AEEA-DOTA])[Aoc(2)]WGK([CO-Piperazinyl(4-CH2COOH)])D[dP]))",Kd,mouse FAP [1],< 0.018 nM
same,IC50,human FAP,0.011 nM
same,IC50,mouse FAP [2],0.024 nM
"CCCCCC[C@@H]1NC(=O)[C@H](Cc2ccc(CNC(=O)COCCOCCNC(=O)CN3CCN(CC(=O)O)CCN(CC(=O)O)CC3)cc2)NC(=O)[C@H](Cc2ccccc2)N(C)C(=O)CNC(=O)CNC(=O)[C@H]2CCCN2C(=O)[C@H](CC(=O)O)NC(=O)[C@H](CCCCNC(=O)N2CCN(CC(=O)O)CC2)NC(=O)CNC(=O)[C@H](Cc2c[nH]c3ccccc23)NC1=O [Example C43, Gly-Gly-NMePhe-F(4amPEG2NH-NOTA-Ga)-Aoc-Trp-Gly-K(COpipzaa)-Asp-D-Pro] (cyclo(GG[NMeF][Phe(4-CH2NH2)]([AEEA-NOTA])[Aoc(2)]WGK([CO-Piperazinyl(4-CH2COOH)])D[dP]))",Kd,mouse FAP [1],< 0.04 nM
same,IC50,human FAP,0.011 nM
same,IC50,mouse FAP [2],0.034 nM
"CCCCCC[C@@H]1NC(=O)[C@H](Cc2ccc(CNC(=O)COCCOCCNC(=O)CCC(C(=O)O)N3CCN(CC(=O)O)CCN(CC(=O)O)CC3)cc2)NC(=O)[C@H](Cc2ccccc2)N(C)C(=O)CNC(=O)CNC(=O)[C@H]2CCCN2C(=O)[C@H](CC(=O)O)NC(=O)[C@H](CCCCNC(=O)N2CCN(CC(=O)O)CC2)NC(=O)CNC(=O)[C@H](Cc2c[nH]c3ccccc23)NC1=O (single isomer, unassigned) [Example C36, Gly-Gly-NMePhe-F(4amPEG2NHNODaGA-Lu)-Aoc-Trp-Gly-K(COpipzaa)-Asp-D-Pro]",Kd,mouse FAP [1],< 0.021 nM
same,IC50,human FAP,0.02 nM
same,IC50,mouse FAP [2],0.042 nM
"CCCCCC[C@@H]1NC(=O)[C@H](Cc2ccc(CNC(=O)COCCOCCNC(=O)CN3CCN(CC(=O)O)CCN(CC(=O)O)CCN(CC(=O)O)CC3)cc2)NC(=O)[C@H](Cc2ccccc2)N(C)C(=O)CNC(=O)CNC(=O)[C@H]2CCCN2C(=O)[C@H](CC(=O)O)NC(=O)[C@H](Cc2ccc(OC)cc2)NC(=O)CNC(=O)[C@H](Cc2c[nH]c3ccccc23)NC1=O [Example C17, Gly-Gly-NMePhe-F(4amPEG2NHDOTA-Lu)-Aoc-Trp-Gly-F(4OMe)-Asp-D-Pro] (cyclo(GG[NMeF][Phe(4-CH2NH2)]([AEEA-DOTA])[Aoc(2)]WGY(Me)D[dP]))",Kd,mouse FAP [1],< 0.013 nM
same,IC50,human FAP,0.005 nM
same,IC50,mouse FAP [2],0.01 nM

# Source: patent US20250090699A1, “FAP TARGETING CYCLIC PEPTIDES AND CONJUGATES THEREOF” (Novartis AG, priority 2023, published 2025)
